Experimental data reported in the RNAGym collection of RNA variant scans (doi:10.7554/elife.90254).
Read counts are not given, so values of variants with three or more changes are uncertain.

B1: LINE1-full (parent)
chain: UACGUAGGUGGUUUUCCCCUGAUAGUGCUAAGGGGGCCUGGAAGUUUGGACUGGGCAGAGCUCAACACAGCGUGGCAAAGUGGCUGUGGCUAGACUGCCUCUCUGGAUUCCUCGUCACUCAGCAGGGCAUCUCUGAGAGAAAUGCC

Variants of: B1
Assay: self-cleavage, relative activity (ratio to wild type); higher = more cleavage; in vitro, sequencing; the parent is a self-cleaving ribozyme

Variant | self-cleavage
A30U G40U U73C | 1.25
A30U U39C U45C A78U A141G | 0.59
A30U U39C U100C | 1.91
A30U U45A U100C | 1.08
A30U U45G A64G U134G U143C | 0
A30U U46A U96C U115A | 0.11
A30U U46C A78G U132C U134C A140U | 2.21
A30U U46C A79G | 1.2
A30U U47C A57U C84U U130C | 0.13
A30U U47C A67U | 0.32
A30U U47G U100C U134C | 1.75
A30U U62C U104C | 0
A30U U62C U104C A124U | 0
A30U U62C U130C | 0.06
A30U U73A U91C U96A G114A | 0.01
A30U U81C U91C A142G | 0.57
A30U U85A A142G | 0.04
A30U U87A U130C | 0.1
A30U U91G U115C A136G A140G | 0
A30U U100C A121U A140U | 2.83
A30U U115C A140U | 1.99

Variant | self-cleavage
A31C G36A U81A U109C | 1.61
A31C U47A A67U A124U | 0.12
A31C U62C U91C U108C G114A U130C | 0
A31C U85A A138G | 0.52
A31C U102C U134C | 2
A31C U104A U132C | 1.46
A31C U112C A136U | 0.88
A31G A42C G126A A142G | 1.18
A31G A42G G72U G126A | 1.02
A31G A42G G74A | 1.17
A31G A43G A65G | 0
A31G A50G A77U A136G | 0.26
A31G A50G A77U U87C | 0
A31G A57U U62C G88A | 0.01
A31G A59G A67G | 0
A31G A64G U96A G127A | 0.02
A31G A65U A141G | 0.61
A31G A65U U85C | 0
A31G A67C U81C | 0
A31G A67U U102C A138U | 0.18
A31G A69G U134C A138G | 2.12

Variant | self-cleavage
A31G A77G A79G C110A A142G | 0
A31G A79G U109C | 1.64
A31G A92G A138G | 0.09
A31G A92U U104A U112C | 0.69
A31G A136U A142G | 0.6
A31G A138G G144A | 1.02
A31G C56G G74A U115C A129U | 0.04
A31G C111U U134G | 0
A31G G32A A57G | 0.4
A31G G32C G60A A69U A138U A140G | 0
A31G G33A U39A A77C A79U U104C U119C A141G | 0
A31G G34A U85C G122C | 0.21
A31G G34U U104C C116U A136G | 1.21
A31G G35A U62C U115C | 0
A31G G54A A92G U134A | 0.08
A31G G72A U104G | 1.02
A31G G97U U100C U109A | 0.06
A31G G114A U132C | 1.05
A31G U46A A57G | 0.55
A31G U46G U108A A117G U130C | 0
A31G U47A C84U U87A | 0.06

Variant | self-cleavage
A31G U47A G105U | 1.19
A31G U62A C66U | 0.06
A31G U62C U81C | 0.3
A31G U73A C95A A140U | 0.03
A31G U73A C98A | 0.24
A31G U73A G86A G88C C110A A140U | 0.05
A31G U73A U87C A140G | 0.24
A31G U73C U115A | 2.3
A31G U73G C146A | 1.16
A31G U81C A140G | 0.84
A31G U91C C110U | 0.94
A31G U91C U104A | 1.13
A31G U102A G114A A142G | 1.27
A31G U104C A129U | 1.36
A31G U132C A140G | 0.78
A31U A42G A138G C146U | 0.84
A31U A42G G55U A57G U91A | 0.05
A31U A50G A141G | 0.57
A31U A57G U108C | 2.3
A31U A59G A117G | 0
A31U A59G A136G | 0.17
